From the supplement of paper PMC11417369
± gives the standard deviation of the averaged measurements. This is one part of the list.

System: PfAP2-EXP AP2 domain (GST-tagged)
Test: gcPBM binding intensity (ln(normalized median fluorescence intensity)); higher = stronger DNA binding
How it was run: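 Binding intensity is defined as the maximum Masliner-normalised natural-log median intensity across replicate spots for either probe orientation. It was measured on an Agilent 4 × 180k array of primer-extended double-stranded 36-bp intergenic genomic probes and negative controls, to which GST-tagged P. falciparum DNA-binding domains made in E. coli were applied for 1 h in 1× PBS with 1% milk, 0.2 mg/ml BSA, 0.5% salmon testes DNA and 0.03% Triton X-100. Detection was by Alexa488 anti-GST antibody and scanning at 488 nm.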

Row | Sequence | gcPBM binding intensity (ln)
1 | TACCAAAAGAAACACACACACAAAATATATAAATAT [CACACA_site1869] | 8.61 ± 0.54
2 | TCCCATATATATATATATATATATATATATAATAAT [TGCATGCA_negctrl_site41] | 8.885 ± 0.049
3 | TTTGGCTAGTCAAGTTGTACAAAAAAAAAAAAAAAA [XGTACX_site8382] | 8.23 ± 0.51
4 | ATACTTTTAATATGCACATGCAAATATGAAATATCG [TGCATGCA_site603] | 8.74 ± 0.085
5 | AAATATATATAAGCGTGTACACATTCTGAGTGTTGT [XGTACX_site1088] | 8.88 ± 0.3
6 | TATCGTTTTATTCGGTTGCACCAAAAAAATAAAATA [GTGCAC_site9408] | 8.32 ± 0.4
7 | ATAATAAAAATAAAATGTACATACATAAATATATAT [XGTACX_site6228] | 8.62 ± 0.28
8 | AGCTATAATAAATATACACACATATATAAATATGTA [CACACA_site6583] | 8.1 ± 0.36
9 | ATATATATATAATAAGTGCAAAAATAATGACCTATA | 9.48 ± 0.099
10 | TATATATTTTTATGCACACACAAAGAAAATTTTCCT [CACACA_site2863] | 8.765 ± 0.078
11 | AAAAAAAATTAAAATAAAATATAAATATAAAATATA [GTGCAC_negctrl_site714] | 8.23 ± 0.24
12 | AAAGTATAACGGATACCATTTATGTGATTATTTTGT [XGTACX_negctrl_site188] | 8.46 ± 0.35
13 | AATATATAATTAATTGCACACCTTGTCACGCCAAAA [CACACA_site1174] | 8.64 ± 0.32
14 | ATTTACCCTTGCCATGCACACTTTTTTATAGAAAAT [CACACA_site5857] | 9.13 ± 0.44
15 | TATTAATACAGACACACACACACACTAATTAAAATA [CACACA_site7967] | 8.73 ± 0.47
16 | GAATGAATACGTTTTACACACTTGAATATAATTTCA [CACACA_site989] | 8.5 ± 0.28
17 | ATATATAAATTTAATACACACCCAAAAAAAAAAAAA [CACACA_site7719] | 8.4 ± 0.61
18 | AAAATTATAAAATGGGCACACATGAAGATTGTAGTA [CACACA_site2226] | 8.78 ± 0.49
19 | TAAATATATAAACACACACACATTAATACAGATATT [CACACA_site5851] | 8.74 ± 0.59
20 | TTATTTATTTTTTCATGTACTTAAATATATTAATGT [XGTACX_site5804] | 8.64 ± 0.4
21 | ATCTATATTTTTATAACACACAATGATGTACATTAC [CACACA_site6633] | 8.64 ± 0.33
22 | TAGAATAATCTATAAACACACAAACCCAACAAAAGA [CACACA_site6132] | 8.97 ± 0.63
23 | TGAAAATATTTTATATGTACATATATTATCAATACA [XGTACX_site92] | 8.6 ± 0.37
24 | TTATTAGGTATATATGCACACAATACCCAAAACAAC [CACACA_site4221] | 8.87 ± 0.099
25 | GGTAATAAACAATGAAGTACGTAAAGGTAAAATATT [XGTACX_site2647] | 9.33 ± 0.51
